# Screen size: about 310,000 compounds; about 14,000 (4.5%) showed an effect of 50% or more. Effects have a minus sign here. The list shows a part of the results.
# Target: human ether-à-go-go-related gene (hERG) potassium channel (human, UniProt Q12809)
# Assay: primary screen, population patch clamp on CHO cells stably expressing hERG
# 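Further: peak tail current of the secondary pulse compared with the same well before compound.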
# Chain of human ether-à-go-go-related gene (hERG) potassium channel (Q12809 whole entry, looked up): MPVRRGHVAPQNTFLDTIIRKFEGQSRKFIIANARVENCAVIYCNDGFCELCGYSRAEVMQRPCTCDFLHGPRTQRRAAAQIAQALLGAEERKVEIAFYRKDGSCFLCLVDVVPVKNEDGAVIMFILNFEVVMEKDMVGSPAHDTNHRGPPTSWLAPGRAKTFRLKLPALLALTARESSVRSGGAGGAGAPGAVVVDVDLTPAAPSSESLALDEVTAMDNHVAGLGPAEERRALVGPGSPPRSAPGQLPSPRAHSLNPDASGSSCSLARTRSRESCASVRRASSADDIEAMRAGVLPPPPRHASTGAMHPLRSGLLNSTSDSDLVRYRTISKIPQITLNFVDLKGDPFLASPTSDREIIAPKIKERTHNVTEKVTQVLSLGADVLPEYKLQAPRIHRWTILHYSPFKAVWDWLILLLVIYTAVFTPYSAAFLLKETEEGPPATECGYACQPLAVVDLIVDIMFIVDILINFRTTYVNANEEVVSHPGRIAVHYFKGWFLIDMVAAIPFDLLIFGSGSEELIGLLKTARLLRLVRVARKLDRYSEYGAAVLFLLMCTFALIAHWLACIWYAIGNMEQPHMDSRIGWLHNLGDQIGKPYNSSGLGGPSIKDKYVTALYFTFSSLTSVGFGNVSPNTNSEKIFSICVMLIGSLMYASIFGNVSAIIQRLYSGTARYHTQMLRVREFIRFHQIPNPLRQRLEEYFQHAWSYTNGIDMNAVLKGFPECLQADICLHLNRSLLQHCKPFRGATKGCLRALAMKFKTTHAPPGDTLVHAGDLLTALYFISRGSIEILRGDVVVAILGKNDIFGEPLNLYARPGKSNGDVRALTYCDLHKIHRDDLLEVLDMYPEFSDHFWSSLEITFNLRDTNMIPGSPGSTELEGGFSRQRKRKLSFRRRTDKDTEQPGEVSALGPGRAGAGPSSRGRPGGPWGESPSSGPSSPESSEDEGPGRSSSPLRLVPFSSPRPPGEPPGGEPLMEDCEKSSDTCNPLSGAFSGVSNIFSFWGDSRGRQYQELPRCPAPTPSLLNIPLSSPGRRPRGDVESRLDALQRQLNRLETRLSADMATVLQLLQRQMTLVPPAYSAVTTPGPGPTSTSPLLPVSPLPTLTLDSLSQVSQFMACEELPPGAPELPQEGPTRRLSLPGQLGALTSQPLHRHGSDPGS
row,Structure (SMILES),"hERG current change (%, negative = inhibition) at 10uM"
1,CCOc1ccc(N(CC(=O)Nc2cccc(C)c2C)S(=O)(=O)c2c(C)[nH]c(=O)[nH]c2=O)cc1,8.48%
2,CCc1ccc(CN2CC(C(=O)O)CC2=O)cc1 (centres unmarked),0.576%
3,Cc1nn(-c2cccc(Cl)c2)c2nc(-c3ccco3)cc(C(=O)O)c12,19%
4,Cc1cccc(NC(=O)Nc2cccc(C)n2)n1,11.4%
5,CC(C)c1ccccc1NC(=S)NCC1(N(C)C)CCCCC1,-10.3%
6,O=C(CN1CCN(c2ccc(Cl)cc2)CC1)Nc1cccc(F)c1,-3.54%
7,ClCc1nnc(-c2ccccc2)o1,18.8%
8,Cc1ccnc(NS(=O)(=O)c2ccc(NC(=O)CCc3ccccc3)cc2)n1,16.4%
9,COc1ccc(C2C(CC(=O)O)=C(O)C(=O)N2c2ccccc2)cc1 (centres unmarked),7.18%
10,CCCCn1c(=O)[nH]c(=O)c2c1nc(-c1ccc3ccccc3c1)n2CC,22.7%
11,Cn1nc(C(F)(F)F)c2cc(C(=O)Nc3ccc(C(F)(F)F)cc3)sc21,17%
12,O=[N+]([O-])c1ccc(NCc2ccccn2)nc1,-5.06%
13,COc1cc2c(cc1OC)CN(CCOc1ccc(Br)cc1)CC2,-68.8%
14,CCCCNC(=O)c1cc2nc3c(c(C(F)(F)F)n2n1)CCc1ccccc1-3,5.29%
15,CC(=O)Nc1ccc(NS(=O)(=O)c2ccc3ccccc3c2)cc1,-6.01%
16,COc1ccc(NC(=O)CSc2nc(C)cc(C(F)(F)F)n2)cc1,-27.4%
17,N#Cc1c(N)nc(SCc2ccncc2)c(C#N)c1-c1cccs1,-4.79%
18,O=C(NCCC1=CCCCC1)C1COc2ccccc2O1 (centres unmarked),-20.2%
19,CC(Sc1nnc(N)s1)c1ccccc1Cl (centres unmarked),-6.14%
20,CC(C)CC(=O)NC(NC(=S)Nc1cccc2cccnc12)C(Cl)(Cl)Cl (centres unmarked),16.1%
21,COc1ccc(-c2nc3ccccc3c(=O)n2-c2nccs2)cc1,0.961%
22,O=C1NN(c2cccc(Br)c2)C(=O)/C1=C/c1ccc(-c2cc([N+](=O)[O-])ccc2O)o1,-9.65%
23,Cc1ccnc(NC(=O)c2cc([N+](=O)[O-])cc([N+](=O)[O-])c2)c1,10.9%

row,Structure (SMILES),"hERG current change (%, negative = inhibition) at 10uM"
1,CCNC(=O)OCC(CC)NC(=O)OCC(C)C (centres unmarked),6.29%
2,O=C(Nc1ccc(N2CCN(C(=O)c3ccccc3)CC2)cc1)c1cc([N+](=O)[O-])ccc1N1CCOCC1,-35.9%
3,COc1ccc(N2C(=O)[C@@H]3[C@H](C2=O)[C@H]2c4ccccc4C=CN2[C@@H]3C(C)=O)cc1,23%
4,CCC(C)c1ccccc1N1CC(C(=O)N2CCN(S(=O)(=O)c3ccccc3Br)CC2)CC1=O (centres unmarked),-16.2%
5,CCN1CCN(CCNC(=O)c2cc(Cl)c(NC(=O)C3=C(C)OCCS3)cc2OC)CC1,-73.4%
6,O=C(Nc1nc2cc3c(cc2s1)OCO3)c1cccc(N2C(=O)CCC2=O)c1,0.324%
7,COc1ccc(-c2nsc(SCC(=O)Nc3cc(C)on3)n2)cc1,11.8%
8,CCC(=O)NC1CCN(C(=S)NC)CC1,7.36%
9,CCN(Cc1ccc(O)cc1)CC1CCCN(CCc2cccc(F)c2)C1 (centres unmarked),-71.1%
10,C=CCn1c(SCC(=O)OCC)nc(C(F)(F)F)cc1=O,-11.6%
11,COc1cc2c(cc1OC)C(C(=O)O)C(c1cc(Br)c(O)c(OC)c1)N(C)C2=O (centres unmarked),1.57%
12,Cc1nn(-c2ccc(NC(=O)c3ccncc3)cc2)c(C)c1Cl,9.73%
13,O=C(Nc1cccc(S(=O)(=O)N2CCOCC2)c1)c1ccco1,-9.84%
14,NP(=O)(OCCCc1ccccc1)Oc1ccccc1 (centres unmarked),4.28%
15,O=C1/C(=C\c2ccc(O)c(O)c2)SC(=S)N1Cc1ccccc1,16.3%
16,CCOC(=S)NC(=O)c1sc2ccccc2c1Cl,14.4%
17,CCOc1ccccc1NC(=O)C1CCN(C(=O)NCc2ccccc2)CC1,9.9%
18,CN1CCN(C(=O)C2CCN(S(=O)(=O)c3ccc(F)cc3)CC2)CC1,5.18%
19,c1ccc(CSC2=NCCS2)cc1,9.34%
20,CCCCCNC(=O)Cn1c(=O)c2c(ncn2CC(C)C)n(Cc2ccccc2)c1=O,5.64%
21,C=CCn1c(SCC(=O)c2[nH]c(C)c(C(=O)OCC)c2C)nc2scc(-c3ccccc3)c2c1=O,11.4%
22,CC1CCc2c(sc3c2C2=NS(=O)(=O)CCN2C=N3)C1 (centres unmarked),3.13%
23,CN(CC(=O)Nc1ccc(F)c(F)c1F)C(=O)c1ccc2c(c1)NC(=O)CS2,-21%

row,Structure (SMILES),"hERG current change (%, negative = inhibition) at 10uM"
1,Brc1ccc(-c2nnc(-c3cccc(Br)c3)o2)cc1,1.34%
2,COC(=O)[C@H](Cc1ccccc1)NC(=O)N(C)Cc1ccccc1,6.03%
3,CC1CC(C)CN(S(=O)(=O)N2CCCC(C(=O)NCCc3ccccc3)C2)C1 (centres unmarked),8.74%
4,O=P1(Nc2cccnc2)COc2ccccc2OC1,30.6%
5,OCCC1CN(Cc2cnc(-c3ccc(Cl)cc3)nc2)CCN1C1CCCCC1 (centres unmarked),-73.6%
6,Cc1cccn2c(=O)c(/C=C(\C#N)C(=O)NC3CCS(=O)(=O)C3)c(Oc3ccccc3Cl)nc12 (centres unmarked),0.945%
7,CC(Sc1nnnn1C)C(=O)Nc1cc(S(=O)(=O)N2CCCCC2)ccc1Cl (centres unmarked),-28.2%
8,CCOC(=O)C1CN(c2cc3c(cc2F)c(=O)c(C(=O)O)cn3CC)OC1C(=O)OCC (centres unmarked),7.81%
9,COc1cccc2c(=O)cn[nH]c12,4.63%
10,COc1cc2ccccc2cc1C(=O)O,8.36%
11,CCc1nc2ccccc2c(C(=O)OCC(=O)N2CC(C)OC(C)C2)c1C (centres unmarked),17%
12,Cc1ccc(N=C2CCCCCN2C)c(C#N)c1.Cl,-7.98%
13,O=C(NCCCCCCNC(=O)c1ccc(Br)s1)c1ccc(Br)s1,1.78%
14,O=Cc1cnc(N2CCN(c3ccccc3)CC2)s1,0.238%
15,CC1CN(C(=O)CCC(=O)NCCCN2C(C)CCCC2C)c2ccccc2O1 (centres unmarked),-10.9%
16,Cc1c(C(=O)NCc2ccc3c(c2)OCO3)oc2ccc(Br)cc12,1.72%
17,CCC1CCCCN1C(=O)Cn1c(=O)oc2ccccc21 (centres unmarked),2.66%
18,Cn1c(CNS(=O)(=O)c2ccc(Br)cc2)n[nH]c1=S,-36.9%
19,COc1ccccc1CCC(=O)NNC(=O)c1ccccc1,-8.3%
20,CC(=O)Nc1ccc2c(c1)ncn2-c1ccccc1,3.72%
21,COc1ccc(-c2cc(C3CC3)nc(N)c2C#N)cc1,19.4%
22,CCc1c(C)nc2[nH]nc(NC(=O)C(F)(F)F)n2c1=O,14.6%
23,COc1ccc(CCNC(=O)CC2SC(=NCc3ccccc3OC)NC2=O)cc1 (centres unmarked),41.6%

row,Structure (SMILES),"hERG current change (%, negative = inhibition) at 10uM"
1,COc1cc(S(=O)(=O)N2CCOCC2)ccc1NC(=O)CN1c2cccc3cccc(c23)S1(=O)=O,-11.8%
2,COc1ccc(CCNC(=O)c2sc3cc(C)ccc3c2Cl)cc1,3.77%
3,C[C@@H]1O[C@@H](OC2C(O)C(OCCc3ccc(O)c(O)c3)OC(CO)C2OC(=O)/C=C/c2ccc(O)c(O)c2)[C@H](O)[C@H](O)[C@H]1O (some centres unmarked),18.8%
4,O=C(O)c1ccc2c3c(cccc13)C(=O)N(c1cccc3ccccc13)C2=O,34.3%
5,CCc1cc2cc3c(cc2nc1SCC(=O)Nc1cc(OC)c(OC)cc1C(=O)O)OCO3,-4.72%
6,COc1ccc(/C(O)=C2/C(=O)C(=O)N(c3nc(C)c(C)s3)C2c2ccco2)cc1 (centres unmarked),10.5%
7,COc1cc(C2NC(=O)NC(C)=C2C(=O)OC2CCCC(C)C2)cc(Br)c1O (centres unmarked),-2.79%
8,Cn1cc(Br)c(C(=O)NNC(=O)c2cccc(Br)c2)n1,-3.76%
9,Cc1ccc(C)c(C(=O)CCC(=O)OCn2nnc3ccccc3c2=O)c1,8.38%
10,COC(=O)c1sc(N)c(C(=O)OC)c1COC(=O)CNS(=O)(=O)c1ccc(C)c(C)c1,-18.9%
11,CC1CCCN(C(=O)C(=O)Nc2ccc3nc4n(c(=O)c3c2)CCCCC4)C1 (centres unmarked),-17.8%
12,COc1ccc(/C=N/NC(=O)C(=O)N2CCN(c3ccccc3OC)CC2)cc1,-27.6%
13,COc1ccc(N(CC(=O)NCc2ccc(F)cc2)C(=O)Cn2nnc(-c3ccc(C)o3)n2)cc1OC,-2.94%
14,O=[N+]([O-])c1cc(Cl)ccc1N1CCCCC1,2.47%
15,CCOC(=O)c1sc(=S)n(Cc2ccccc2)c1C,4.15%
16,COc1cc(/C=N/Nc2nncn2N)ccc1OCc1c(C)no[n+]1[O-],17%
17,CNC(=O)C1=C(C)Nc2nc3ccccc3n2C1c1cccc(OC)c1 (centres unmarked),-7.64%
18,COCCNC(=O)c1ccccc1-c1ccccc1C(=O)O,-8.63%
19,CSc1ccccc1Nc1ncnc(N)n1,6.71%
20,CCCC(=O)N1CCN(c2ccc(NC(=O)c3cccs3)cc2)CC1,-18.2%

# Source: publication PMC4336329 (PLoS ONE, 2015)
